In US4622301A, “2-Oxocarboxylic acid reductase and its preparation” (BASF Aktiengesellschaft, priority 1983, dated 1986):
For at least one compound, name, drawing or mass did not settle the structure.

Legend:
[1] = system: 2-oxocarboxylic acid reductase; assay: Relative rates of reduction of 2-oxocarboxylic acids, enzyme from P. mirabilis; assay type: biochemical, Proteus mirabilis; conditions: rate for phenylpyruvate taken as 1
[2] = system: 2-oxocarboxylic acid reductase; assay: Relative rates of reduction of 2-oxocarboxylic acids, enzyme from P. vulgaris; assay type: biochemical, Proteus vulgaris; conditions: rate for phenylpyruvate taken as 1
Experimental: In an electrochemical cell, 25 ml of a solution of 100 mM potassium phosphate buffer at pH 7.0, 4 mM methylviologen and 40 mM phenylpyruvate were reduced with 0.5 mg of 2-oxoacid reductase according to Example 3 at a voltage of -700 mV, against a standard calomel electrode. The current of 5.8 mA decreased sharply after 9 hours. According to HPLC analysis, the reaction solution contained 88% of the phenyllactic acid expected. The solution was acidified to pH 1.8 with dilute sulfuric acid and then extracted with ether. […] A pure commercial preparation of (2S)-sodium phenyllactate gave a value of -21.4°, measured under the same conditions. (R)-mandelic acid and (R)-2-hydroxy-4-methylpentanoate were prepared by a similar method.
3-Oxocarboxylic acids and hydroxyacetone are not reduced.

SMILES: CC(=O)C(=O)O [Pyruvate]
- Relative rates (of reduction) [1]: 0.92
- Relative rates (of reduction) [2]: 0.85

SMILES: CCC(C)C(=O)C(=O)O (single isomer, unassigned; (+)) [(+) 2-Oxo-3-methylpentanoate]
- Relative rates (of reduction) [1]: 0.28
- Relative rates (of reduction) [2]: 0.25

SMILES: O=C(O)CCCC(=O)C(=O)O [2-Oxoadipate]
- Relative rates (of reduction) [1]: 0.70

SMILES: O=C(O)C(=O)Cc1c[nH]c2ccc(OCc3ccccc3)cc12 [5-Benzyloxyindolylpyruvate]
- Relative rates (of reduction) [1]: 0.30

SMILES: O=C(O)C(=O)Cc1ccccc1 [Phenylpyruvate]
- Relative rates (of reduction) [1]: 1.00
- Relative rates (of reduction) [2]: 1.00

SMILES: O=C(O)C(=O)Cc1c[nH]c2ccccc12 [Indolylpyruvate]
- Relative rates (of reduction) [1]: 0.35
- Relative rates (of reduction) [2]: 0.67

SMILES: O=C(O)CC(=O)CC(=O)O [3-Oxoglutarate]
- Relative rates (of reduction) [1]: 0

SMILES: CC(C)CC(=O)C(=O)O [2-Oxo-4-methylpentanoate]
- Relative rates (of reduction) [1]: 0.81

SMILES: O=C(O)C(=O)c1ccccc1 [Phenylglyoxylate]
- Relative rates (of reduction) [1]: 0.16
- Relative rates (of reduction) [2]: 0.05

SMILES: CCC(C)C(=O)C(=O)O (racemic) [(±) 2-Oxo-3-methylpentanoate]
- Relative rates (of reduction) [2]: 0.46

SMILES: O=C(O)CC(=O)C(=O)O [Oxalacetate]
- Relative rates (of reduction) [1]: 0.73
- Relative rates (of reduction) [2]: 0.50
